Laboratory results reported in the supplement of paper PMC10037445.
The full ranking holds about 2,900 compounds; the median of “NF-kB SEAP reporter activity, fold change vs agonist alone” is about 0.99, and the highest 2% start at about 2.6. Some of the results follow.

Assays:
[1] = test system: RAW-Dual; test: NF-kB SEAP reporter activity, fold change vs agonist alone; cytotoxicity flag (confluency mask): not cytotoxic; higher = enhanced NF-kB activity
In short: (§1)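 Library stock was pin-tooled at 50 nL into 384-well plates of RAW-Dual macrophages (50,000 cells/well, DMEM), followed 1 h later by a PRR agonist, and the cells were kept at 37 °C, 5% CO2. Supernatant collected after 20 hours was read for IRF by QuantiLuc luminescence and for NF-κB by QuantiBlue absorbance at 620 nm. Reporter activity is fold change over agonist-alone wells, and a well counted as cytotoxic when its IncuCyte confluency was below 70% of agonist controls in both mask sets.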

[2] = test system: RAW-Dual; test: NF-kB SEAP reporter activity, fold change vs agonist alone; higher = enhanced NF-kB activity; details: cytotoxicity flag (confluency mask): not cytotoxic
In short: as §1

[3] = agonist: ODN 1826 (TLR9) 0.5 ug/mL
[4] = agonist: Pam2CSK4 (TLR2/6) 0.1 ug/mL
[5] = agonist: Pam3CSK4 (TLR2/1) 0.1 ug/mL
[6] = library stock concentration (final ~1000-fold dilution): 10 mM, agonist: Imiquimod (TLR7) […]
[7] = library stock concentration (final ~1000-fold dilution): 10 mM, agonist: MPLA (TLR4) […]

CC1(C)CCC(CN2CCN(c3ccc(C(=O)NS(=O)(=O)c4ccc(NCC5CCOCC5)c([N+](=O)[O-])c4)c(Oc4cnc5[nH]ccc5c4)c3)CC2)=C(c2ccc(Cl)cc2)C1 (library stock concentration (final ~1000-fold dilution): 10 mM)
NF-kB SEAP reporter activity ([1]; agonist: LPS (TLR4) 0.1 ug/mL): 1.64 | NF-kB SEAP reporter activity [1, 3]: 0.581 | NF-kB SEAP reporter activity [1, 4]: 0.562 | NF-kB SEAP reporter activity [1, 5]: 0.523

CC1(C)CCC(CN2CCN(c3ccc(C(=O)NS(=O)(=O)c4ccc(NCC5CCOCC5)c([N+](=O)[O-])c4)c(Oc4cnc5[nH]ccc5c4)c3)CC2)=C(c2ccc(Cl)cc2)C1
NF-kB SEAP reporter activity [2, 6]: 0.863 | NF-kB SEAP reporter activity [2, 7]: 2.12

Nc1nc(N)c2nc(-c3cccc(O)c3)cnc2n1
NF-kB SEAP reporter activity ([2]; library stock concentration (final ~1000-fold dilution): 2 mM, agonist: Imiquimod (TLR7) […]): 0.878 | NF-kB SEAP reporter activity ([2]; library stock concentration (final ~1000-fold dilution): 2 mM, agonist: MPLA (TLR4) […]): 1.11

Nc1nc(N)c2nc(-c3cccc(O)c3)cnc2n1 (library stock concentration (final ~1000-fold dilution): 2 mM)
NF-kB SEAP reporter activity ([1]; agonist: LPS (TLR4) 0.1 ug/mL): 1.19 | NF-kB SEAP reporter activity [1, 3]: 0.976 | NF-kB SEAP reporter activity [1, 4]: 0.932 | NF-kB SEAP reporter activity [1, 5]: 0.954

COc1ccccc1N1CCN(CC(O)COc2cccc3ccccc23)CC1 (stereo not given)
NF-kB SEAP reporter activity [2, 6]: 0.988 | NF-kB SEAP reporter activity [2, 7]: 0.772

COc1ccccc1N1CCN(CC(O)COc2cccc3ccccc23)CC1 (stereo not given) (library stock concentration (final ~1000-fold dilution): 10 mM)
NF-kB SEAP reporter activity ([1]; agonist: LPS (TLR4) 0.1 ug/mL): 0.954 | NF-kB SEAP reporter activity [1, 3]: 0.897 | NF-kB SEAP reporter activity [1, 4]: 0.731 | NF-kB SEAP reporter activity [1, 5]: 0.867

Cc1ncc(Cl)cc1NCc1ccc(C(=O)NC(CC2CCCC2)C(=O)NC2CC2)s1 (stereo not given)
NF-kB SEAP reporter activity [2, 6]: 0.865 | NF-kB SEAP reporter activity [2, 7]: 0.987

Cc1ncc(Cl)cc1NCc1ccc(C(=O)NC(CC2CCCC2)C(=O)NC2CC2)s1 (stereo not given) (library stock concentration (final ~1000-fold dilution): 10 mM)
NF-kB SEAP reporter activity ([1]; agonist: LPS (TLR4) 0.1 ug/mL): 0.894 | NF-kB SEAP reporter activity [1, 3]: 0.742 | NF-kB SEAP reporter activity [1, 4]: 0.85 | NF-kB SEAP reporter activity [1, 5]: 0.698

CC(C)(C)C(=O)OCOP(=O)(COCCn1cnc2c(N)ncnc21)OCOC(=O)C(C)(C)C
NF-kB SEAP reporter activity [2, 6]: 1.81 | NF-kB SEAP reporter activity [2, 7]: 1.56

CC(C)(C)C(=O)OCOP(=O)(COCCn1cnc2c(N)ncnc21)OCOC(=O)C(C)(C)C (library stock concentration (final ~1000-fold dilution): 10 mM)
NF-kB SEAP reporter activity ([1]; agonist: LPS (TLR4) 0.1 ug/mL): 1.63 | NF-kB SEAP reporter activity [1, 3]: 1.69 | NF-kB SEAP reporter activity [1, 4]: 0.825 | NF-kB SEAP reporter activity [1, 5]: 1.35

Cl.O=C1NCC2(CCN(CCc3ccccc3)CC2)O1
NF-kB SEAP reporter activity [2, 6]: 1.22 | NF-kB SEAP reporter activity [2, 7]: 1.15

Cl.O=C1NCC2(CCN(CCc3ccccc3)CC2)O1 (library stock concentration (final ~1000-fold dilution): 10 mM)
NF-kB SEAP reporter activity ([1]; agonist: LPS (TLR4) 0.1 ug/mL): 2.09 | NF-kB SEAP reporter activity [1, 3]: 1.35 | NF-kB SEAP reporter activity [1, 4]: 1.6 | NF-kB SEAP reporter activity [1, 5]: 1.69

COc1cc(-c2cc(-c3ccc(Cl)cc3)nc(=O)[nH]2)ccc1O (library stock concentration (final ~1000-fold dilution): 10 mM)
NF-kB SEAP reporter activity ([1]; agonist: LPS (TLR4) 0.1 ug/mL): 1.6 | NF-kB SEAP reporter activity [1, 3]: 0.991 | NF-kB SEAP reporter activity [1, 4]: 1.22 | NF-kB SEAP reporter activity [1, 5]: 1.39
